The supplement of paper PMC11417369
Some of the results follow.

System: PfSIP2 AP2 domain 1 (GST-tagged)
Assay: gcPBM binding intensity (ln(normalized median fluorescence intensity)); higher = stronger DNA binding
Summary of the method: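 An Agilent 4 × 180k array of primer-extended double-stranded 36-bp intergenic genomic probes, with negative controls, was incubated for 1 h with GST-tagged P. falciparum DNA-binding domains expressed in E. coli. Alexa488 anti-GST antibody detected bound protein, scanned at 488 nm. Binding intensity is the highest Masliner-normalised natural-log median intensity across replicate spots of either probe orientation.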

Row | Sequence | gcPBM binding intensity (ln)
1 | TATATTATATATATATGTACATATTATTATATCTAA [XGTACX_site3835] | 7.31
2 | TTTTGTATTTTTCACACACACATAAGTAAACAATAA [CACACA_site1899] | 7.54
3 | TAAATGAAAATATGTACACACTTGAAAATTTTTATG [CACACA_site5599] | 7.11
4 | AATCTTTTTAAATCTTGATTAATTTCGGGTATATAT [TGCATGCA_negctrl_site107] | 6.82
5 | TACAAGAACAAAAAATGTACGAAATAATTACAAATA [XGTACX_site5824] | 6.73
6 | AAATTAAATATTATATTAATTCTTAAATTTTTTTTT [CACACA_negctrl_site439] | 6.55
7 | ATACAATAATATAAATGTACAAATTATATCTTCATT [XGTACX_site8994] | 6.85
8 | AAACATATGGTATTTAAACACACAAAAAAGAAAGAA [CACACA_site8239] | 7.2
9 | ATGTTGTGGATATATACACACATACATATTTATATA [CACACA_site6857] | 7.05
10 | AAAAAAAAAAAAAAAACACACAAACATCAAATTACT [CACACA_site6950] | 7.55
11 | AATTTCAATTTCTGTTGTACACTTTTTAATAGTAAA [XGTACX_site4085] | 7.08
12 | AAATTTAAAAATAAAGAACACACATATGTAAAATAT [CACACA_site9252] | 7.13
13 | AAGTGTTCTTGTTATACACACACATATATATATATA [CACACA_site8251] | 9.61
14 | TAGCATGATTTGCCTTGTACACAACCGTTTTAATAA [XGTACX_site7911] | 6.76
15 | TATGATAAATATGGAGCACACACACCGAAACATACA [CACACA_site8031] | 7.32
16 | TATTTATAAATATACGCACACATTAATATATATATA [CACACA_site3969] | 8.6
17 | AGTATGTAAATGTGCCATATATATATTAAATACATA [CACACA_negctrl_site14] | 6.93
18 | GTTGGTAGGCGGTACGGTACACGTAGTATTTTTCTT [XGTACX_site4213] | 6.66
19 | ATATTATTTATTTTTAAATTATATTGATTATTTTTT [CACACA_negctrl_site451] | 6.65
20 | TTGAAGTGTACTATTTTATATATATATATACATTTT [CACACA_negctrl_site224] | 7.25
21 | TAGAAATATATTTATTGTACATTGTATATATTATAT [XGTACX_site7584] | 7.04
22 | TTTTAATTTTTAAGACGTACTATCATTTGATAATAA [XGTACX_site3942] | 6.86

Row | Sequence | gcPBM binding intensity (ln)
23 | TACGATGTTTTAAAATGTACATAAAAGTCACATAAG [XGTACX_site3297] | 7.01
24 | TAATGTTCCTATATAGTGCAATTATGTTTTATTTCT | 8.06
25 | TCTTTTTTTTTTACTAGTACTTAAAAAAAAAATATG [XGTACX_site4395] | 7.07
26 | ATTATGTGCCAATACACACACACATCTATATTTATA [CACACA_site6359] | 7.15
27 | TTATTATATAAATAAAAAAAAAAAAAAAAAAAAAAA [CACACA_negctrl_site1455] | 7
28 | TATATACGCATGCGCACACACAAGTGGGAAATTTGG [CACACA_site1785] | 7.17
29 | ACTGTGGGAATAACCACACACACACCCACATATATA [CACACA_site3542] | 6.9
30 | ATATTTATATGAATCACACACAAAAAATATAGAGAT [CACACA_site7775] | 7.02
31 | AAATCACAAAAAAAAAAAAAAATATATATATATATA [CACACA_negctrl_site10] | 9.28
32 | CATAAATACAAATATACACACATATATATATATATA [CACACA_site2633] | 9.66
33 | AATATGTTTTTTAGATGTACAGATTAAATATTAAAA [XGTACX_site7308] | 7.17
34 | TTTTTTTCATATATATGTACATAATTATATATGCAT [XGTACX_site3257] | 7.12
35 | TTTAAAAATATTTCACGTACGCATTTTAAAAAGTAT [XGTACX_site8026] | 6.92
36 | TTAATTATATGGTAAACAAATAAATGTGAAAGGAAA [XGTACX_negctrl_site389] | 6.99
37 | CGTGGGAGCAGACACACACACACACCCATATATATA [CACACA_site334] | 7.34
38 | AATATGGGCATACATGTGCACTTTTTCCCGTGGTTT | 9.88
39 | TTAATTAAATATAGGGGTACATATTATATATGTTTT [XGTACX_site3677] | 7.09
40 | ACGAAAAGATATATATGTACATATATTAAAAAAAAA [XGTACX_site1517] | 7.01
41 | TTATATGCATATTTTTGTACACAACATTGTTGTATA [XGTACX_site8707] | 7.06
42 | AAGAAATTTATTTATTGTACAATATATAATTTGTTT [XGTACX_site2478] | 6.79
43 | ATGTATATTTTTATGTGTACGTAATAAAACATAATA [XGTACX_site7777] | 7.68
44 | TTATTTTTTTTTAGAGCACACATTTTTAATAAGGTA [CACACA_site2133] | 7.15

Row | Sequence | gcPBM binding intensity (ln)
45 | TATAAATTTGTTCAATGTACATGTAAAGATATAATC [XGTACX_site371] | 7.11
46 | TGAAGCAAAAACAAAACACACATATAAATAAATAAA [CACACA_site3925] | 6.88
47 | TTATTTTTTATAAAATGTACATATATTTTAAATATA [XGTACX_site4026] | 7.05
48 | ACCAATCCAAAAGAATGTACCCATGTTTTAAAATAT [XGTACX_site2907] | 7.1
49 | TTCGTATGCATGAAATGTACATGATATTATTATAAA [XGTACX_site4542] | 7.16
50 | TTTTGTTAACATATAGAAAAGAACAAAGTTAAAAAG [XGTACX_negctrl_site462] | 7.51
51 | GAAAAAAAAATACATACACACAATATATTTATTTAT [CACACA_site3124] | 6.87
52 | TATTATATATAATATTGTACATTAAAATATTAAAGA [XGTACX_site3698] | 7.04
53 | TTTATTTTAAAATATAGTACGCAAATAAAAATAAAT [XGTACX_site7783] | 7.33
54 | GGAACGTTCATATTTCCACACACAAAAAATAAATAT [CACACA_site9101] | 7.08
55 | ATATGTATTAAGTGTACACATATAATGGGTTTTCTT [CACACA_site5328] | 7.09
56 | TATATACTATATATATGTACACAAAATTATTTTGAA [XGTACX_site8232] | 7.34
57 | ATATGTAGTGTTATTTGTTCATTGTTTTAATTTTTA [CACACA_negctrl_site1394] | 6.91
58 | TAATTATATAAATACACACACATACACCCAAATAAA [CACACA_site5819] | 7.41
59 | AACATCAAAATATGCACACAAACAATTAGCGGTAGT [CACACA_site2521] | 8.16
60 | GATTTACATTTTGATGAAAATAATAAAATGTGGAAA [TGCATGCA_negctrl_site409] | 6.95
61 | ATATTTTATTTTTAAAGTACAAAAGAAAAGAATAAT [XGTACX_site8247] | 7.25
62 | AAAAAAAAAGACAAAAGTACAAAGGTTCATAATTTA [XGTACX_site3978] | 6.89
63 | CTTATATTTGGACACACACACAATAAAATGAAAAAA [CACACA_site6614] | 7.39
64 | TACACAAGAAAATTCACACACACACCGATATATATA [CACACA_site6008] | 7.41
65 | AAATCTTCATAATAAAGTACTTAACTCTTGGTGTTA [XGTACX_site6112] | 6.79
66 | AATAAATGGAAAAGGTGTACACAAAAAAAAGGGAAA [XGTACX_site4956] | 7.15

Row | Sequence | gcPBM binding intensity (ln)
67 | AAAAAAAAAAAAAAAACATGCAGTTAGTGGTTTTTT [TGCATGCA_site243] | 7.51
68 | GAAATGGGTAAACATACACACACACCGATATATATA [CACACA_site8610] | 7.48
69 | TAACAATTATGCTGGTGTACGTTTGAAATTGGGTAT [XGTACX_site6846] | 7.49
70 | AAAAATTTCTATTTTTGTACTTACTTTTTAGTAATA [XGTACX_site5236] | 6.9
71 | AAAAAACAAAAAAATACACACATAAAAAGGTTTTAG [CACACA_site3584] | 6.93
72 | AAATATGTCAAATATACACACATAATAAATATAATA [CACACA_site2310] | 7.12
73 | TTATAAGATGATTATAAAATCAAATTCATTCTTTTA [CACACA_negctrl_site1338] | 6.49
74 | TAAACATAACAAAGGAGTACAAAACTTGATCAGTTC [XGTACX_site3114] | 6.74
75 | TATGTATAAAAATAATGTACAAAATATATTATATGT [XGTACX_site2794] | 7.12
76 | ATCTTAGTTGAAATATAGAATTTATAATAAAAGTTA [GTGCAC_negctrl_site122] | 6.87
77 | ATACTATAATAATACACACTCATTAGATATATAAAG [CACACA_site7787] | 7.13
78 | TGTACAAATATGTACACACACACATATTTATTTATA [CACACA_site6419] | 7.13
79 | ATAGAATATTTTATTACACACAGAATAATAAAAAAT [CACACA_site6190] | 6.79
80 | CTAAAAGGATGATGAATGCACTATTATTTATATGGA | 8.41
81 | TTATTTTTTTTAGCATATACAAATATATATATATAT [GTGCAC_negctrl_site4] | 9.34
82 | AAGAATTATTTTTTATGTACTTATATGTCAATTTTC [XGTACX_site6676] | 6.99
83 | TATATAATATATTTATGTACGTATTTAAAAATTTAT [XGTACX_site160] | 7.1
84 | TGTATTTATTAATGTACACACATGCGTATGTTCGTT [CACACA_site5892] | 7.15
85 | GAAGGAAATAAATCAACACACATATATTATATATAT [CACACA_site2188] | 7.8
86 | TTGTGTGAGCAAGTAGTGCATAATATAAATAAAAAA [GTGCAC_site9802] | 9.49
87 | TGAAATTTGTTATATGCATGTAAAATATTACGACGA [TGCATGCA_site201] | 7
88 | CATAAATATTTGTGTTGTACAAATATATATATTTAT [XGTACX_site7363] | 6.99
